# ± gives the standard deviation of the averaged measurements. The full ranking holds about 33,000 sequences; the median of “E-score (dimensionless, -0.5 to 0.5)” is about -0.049, and the highest 2% start at about 0.37. The list shows a part of the results.
# System: T1, PmTbr T-box DNA-binding domain (GST fusion)
# T1 sequence: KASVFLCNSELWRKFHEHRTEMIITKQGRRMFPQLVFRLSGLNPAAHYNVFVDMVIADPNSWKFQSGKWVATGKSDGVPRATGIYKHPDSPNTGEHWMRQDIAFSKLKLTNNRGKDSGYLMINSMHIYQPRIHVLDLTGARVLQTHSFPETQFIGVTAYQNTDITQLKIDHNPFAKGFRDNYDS
# Experiment: PBM E-score of 8-mer (E-score (dimensionless, -0.5 to 0.5)); Tbr is Tbrain of the sea star Patiria miniata (Pm) or the sea urchin Strongylocentrotus purpuratus (Sp); higher = stronger binding preference; most listed sequences are background and not binding sites
# Conditions: the construct has about 5 more residues each side
# Procedure: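 Universal protein-binding microarray (Agilent AMADID 016060, 60-bp probes with a 35-bp variable region) incubated with 200 nM GST-fused Patiria miniata Tbr T-box DNA-binding domain (residues 272-466) in PBS pH 7.5. Scored for every ungapped 8-mer (given with its reverse complement) by the Universal PBM Analysis Suite as E-score (modified Wilcoxon-Mann-Whitney enrichment, range -0.5 to 0.5; >0.45 counts as bound) and Z-score of median probe intensity. Two replicate arrays (datasets 1 and 2).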
# 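Further: 200 nM protein in PBS on universal arrays averaged over duplicate arrays.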
row,Sequence,PBM E-score of 8-mer
1,TATCGACA,0.26 ± 0.0068
2,AGACATAT,-0.0508 ± 0.015
3,CACTCGTC,0.126 ± 0.052
4,GAACTACA,0.0281 ± 0.036
5,GTGATCCA,0.00846 ± 0.00087
6,AAAGCCGG,-0.119 ± 0.14
7,CGACATCA,-0.0987 ± 0.091
8,AGCGGCGC,-0.0283 ± 0.055
9,AGATAGTA,-0.0103 ± 0.026
10,GGGAGCCA,-0.135 ± 0.14
11,GCCCTTAA,-0.03775 ± 0.00031
12,GAAGGGTC,-0.165 ± 0.042
13,CGGGCAAC,-0.0923 ± 0.024
14,GTACCACA,0.000605 ± 0.065
15,CATAATAG,-0.123 ± 0.0049
16,CCATATCA,0.108 ± 0.0076
17,CGACCCGC,0.0638 ± 0.034
18,AGCTTCAT,-0.00536 ± 0.11
19,ACGCCTGG,0.236 ± 0.015
20,GTTTTTTA,-0.146 ± 0.0032
21,GCTTCTCA,0.00035 ± 0.019
22,CCGGTAGG,0.00648 ± 0.031
23,AGTCTTTC,-0.0776 ± 0.013
24,AACTACTC,0.0553 ± 0.088
25,CCTCGGGA,-0.0786 ± 0.042

row,Sequence,PBM E-score of 8-mer
1,CACTCGGC,0.134 ± 0.047
2,AACTTTAC,0.189 ± 0.013
3,ATGCACCA,-0.108 ± 0.0049
4,AAGCGAAT,-0.167 ± 0.0081
5,CGCGTCCA,0.0133 ± 0.085
6,GGATACCC,-0.327 ± 0.049
7,CGCCTTTC,0.136 ± 0.032
8,ATAAATGA,0.0609 ± 0.074
9,TAATTGAA,-0.103 ± 0.083
10,AATCCCAT,-0.259 ± 0.033
11,GATCCCGC,0.0206 ± 0.097
12,CGAGATCG,0.112 ± 0.0089
13,AGACGAAA,-0.309 ± 0.015
14,CCAGCGCC,0.0641 ± 0.058
15,CCGAGTCC,-0.105 ± 0.046
16,AAGATGCA,-0.103 ± 0.042
17,GGTAGTAA,-0.119 ± 0.024
18,AAGGTCGA,-0.122 ± 0.069
19,GGTCGAAC,0.171 ± 0.0062
20,AGATTGCG,0.125 ± 0.017
21,GCGCGCTA,0.139 ± 0.038
22,GTATCTCA,0.138 ± 0.024
23,CACCGTCA,0.185 ± 0.02
24,CTGGGAAA,0.02 ± 0.0017
25,AGTCATAA,-0.174 ± 0.029

row,Sequence,PBM E-score of 8-mer
1,CAGAGCTG,0.0809 ± 0.048
2,AATCAGAC,-0.278 ± 0.022
3,AGATGACA,0.238 ± 0.036
4,TCATCTAA,0.0146 ± 0.031
5,GGAGAAAA,-0.0966 ± 0.046
6,TATCCGGA,-0.185 ± 0.012
7,CCACAACG,0.0105 ± 0.03
8,CCGGGGCG,-0.0264 ± 0.0056
9,CAATCGTG,0.0831 ± 0.044
10,CATCCACG,-0.116 ± 0.014
11,GCCATGCA,-0.113 ± 0.0053
12,ATTCTTTA,0.0408 ± 0.0071
13,GCCGTAAA,-0.212 ± 0.073
14,GTCTAGTA,-0.187 ± 0.038
15,ATGGCTGC,-0.0427 ± 0.042
16,ACTAGTTA,-0.00566 ± 0.032
17,ACGGAACG,-0.065 ± 0.057
18,CCTAATAC,0.00426 ± 0.062
19,TCAGAAGA,-0.146 ± 0.013
20,CTTATAAA,-0.0152 ± 0.067
21,CGCAAACA,0.214 ± 0.011
22,CAGTGGCC,-0.0781 ± 0.086
23,CCCCTTGC,-0.131 ± 0.022
24,CAAATAGC,-4e-05 ± 0.0049
25,CTCCTGTA,-0.155 ± 0.04

row,Sequence,PBM E-score of 8-mer
1,ACGACCGC,-0.0605 ± 0.055
2,TCCTACGA,-0.0359 ± 0.055
3,TTCCCGAA,-0.118 ± 0.051
4,AGTGGGGA,0.154 ± 0.027
5,AAGCTCTC,-0.0475 ± 0.014
6,AGTTACTC,-0.0173 ± 0.08
7,ATATTTTG,-0.0355 ± 0.024
8,ACTGTGTA,-0.0774 ± 0.065
9,ACGCTATA,0.0128 ± 0.053
10,AAATTGAC,0.13 ± 0.039
11,CCTTTTAG,0.0723 ± 0.088
12,ATATATAA,-0.0818 ± 0.024
13,ATGTCTCA,-0.049 ± 0.016
14,CCCGTATA,-0.0721 ± 0.019
15,ACTCTGCT,0.0918 ± 0.048
16,CCACACTC,0.321 ± 0.016
17,ATGCGAGC,0.0655 ± 0.061
18,ATACAAAA,-0.165 ± 0.0021
19,GCACGTAC,0.255 ± 0.063
20,ACACTTTC,0.408 ± 0.0072
21,GCTGTGTA,-0.173 ± 0.045
22,CTCTAAGC,0.0538 ± 0.0073
23,ACAAAGAC,-0.0502 ± 0.015
24,CATAGGGA,-0.107 ± 0.0059
25,CCCCCTCA,-0.0539 ± 0.067

row,Sequence,PBM E-score of 8-mer
1,CCGAATAG,-0.0283 ± 0.03
2,ACCTAGGC,0.0409 ± 0.035
3,CATCAGTC,-0.208 ± 0.036
4,ACGTGGAT,-0.0144 ± 0.032
5,ACCCCAAC,0.121 ± 0.15
6,ACGCAGTG,0.0891 ± 0.085
7,ATGTACAA,-0.192 ± 0.076
8,ACGGTACC,0.021 ± 0.049
9,ACAATATA,0.166 ± 0.1
10,CTATGCAA,-0.0607 ± 0.037
11,CTCCAGTA,-0.181 ± 0.038
12,CGCTCCTC,0.109 ± 0.02
13,TAACCAGA,-0.0928 ± 0.048
14,ACTGCCAT,-0.12 ± 0.074
15,ACCCTACG,0.0529 ± 0.027
16,AGTCATAC,-0.0882 ± 0.051
17,ACCGGGAT,-0.118 ± 0.023
18,CGTTCCGA,-0.13 ± 0.0092
19,GCACATCC,0.136 ± 0.038
20,ATCCTCTC,-0.0363 ± 0.027
21,GGGAGGCA,-0.129 ± 0.016
22,GTCGCAAA,0.0796 ± 0.029
23,CGTACCCC,-0.186 ± 0.063
24,ACAAAGAT,0.00791 ± 0.023
25,AGGCTGTA,-0.117 ± 0.092

row,Sequence,PBM E-score of 8-mer
1,ACATTATC,0.0564 ± 0.053
2,AATTCCTA,-0.191 ± 0.082
3,CTAGGCAG,-0.0697 ± 0.037
4,ACATGGAA,-0.0384 ± 0.055
5,ACACCGGT,0.22015 ± 2.8e-05
6,GAGTCACA,0.237 ± 0.0075
7,CCACAACA,0.203 ± 0.049
8,CGACCAGC,0.0347 ± 0.12
9,AGTCTTAA,-0.139 ± 0.04
10,CCATAACA,0.122 ± 0.01
11,ATTGGGTC,-0.0189 ± 0.031
12,ACCGCTCG,-0.175 ± 0.13
13,CTAGCTAA,-0.0114 ± 0.016
14,GTTGAGTA,-0.282 ± 0.074
15,ATTTCTAA,-0.0446 ± 0.046
16,CCCAGAAC,-0.157 ± 0.065
17,AGCGCGAC,0.242 ± 0.003
18,AATCCTAC,-0.284 ± 0.025
19,ATTCGGCA,0.000915 ± 0.0093
20,CATCAAGC,0.019 ± 0.13
21,AGTCCAGC,-0.198 ± 0.067
22,AACCTTTG,-0.194 ± 0.029
23,GGCCGCCC,-0.109 ± 0.018
24,GGTTAACC,-0.244 ± 0.0052
25,AAGCGTCA,0.294 ± 0.019

row,Sequence,PBM E-score of 8-mer
1,CGATTCCA,-0.078 ± 0.029
2,AACATTCC,-0.131 ± 0.058
3,CGAGGTTC,-0.0408 ± 0.02
4,AGGTTACC,-0.041 ± 0.054
5,ATGAAACC,-0.107 ± 0.037
6,AGTCCCAA,-0.375 ± 0.045
7,CGGAGTTC,-0.195 ± 0.018
8,AATTGTGA,0.306 ± 0.019
9,TGTGAGAA,0.43 ± 0.0057
10,ACGGGATC,-0.0611 ± 0.011
11,TCCACCCA,-0.175 ± 0.0046
12,GAGAGTCA,-0.09 ± 0.016
13,GCACTGAA,0.115 ± 0.024
14,ATCAGCTC,-0.219 ± 0.011
15,ATGTAGTA,-0.143 ± 0.038
16,TAAGTCTA,-0.0537 ± 0.026
17,CTAACCCA,0.152 ± 0.045
18,CGGCCCCC,-0.246 ± 0.021
19,TGTTGAAA,0.291 ± 0.013
20,CTTTAGGA,-0.239 ± 0.055
21,AAGCTGTG,0.114 ± 0.079
22,ATGAGCTA,-0.222 ± 0.026
